{"source": "the supplement of paper PMC10037445", "key": {"RAW-Dual [1]": {"tested_on": "RAW-Dual", "experiment": "IRF Lucia reporter activity, fold change vs agonist alone; cytotoxicity flag (confluency mask): not cytotoxic; higher = enhanced IRF activity", "method_in_brief": "(§1)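 Library stock was pin-tooled at 50 nL into 384-well plates of RAW-Dual macrophages (50,000 cells/well, DMEM), followed 1 h later by a PRR agonist, and the cells were kept at 37 °C, 5% CO2. Supernatant collected after 20 hours was read for IRF by QuantiLuc luminescence and for NF-κB by QuantiBlue absorbance at 620 nm. Reporter activity is fold change over agonist-alone wells, and a well counted as cytotoxic when its IncuCyte confluency was below 70% of agonist controls in both mask sets.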"}, "RAW-Dual [2]": {"tested_on": "RAW-Dual", "experiment": "IRF Lucia reporter activity, fold change vs agonist alone; higher = enhanced IRF activity", "details": "library stock concentration (final ~1000-fold dilution): 10 mM, agonist: MPLA (TLR4) […]", "method_in_brief": "as §1"}, "RAW-Dual [3]": {"tested_on": "RAW-Dual", "experiment": "IRF Lucia reporter activity, fold change vs agonist alone; cytotoxicity flag (confluency mask): cytotoxic (confluency <70% of control); higher = enhanced IRF activity", "method_in_brief": "as §1"}, "[4]": {"details": "agonist: 3'3'-cGAMP (STING) 10 ug/mL"}, "[5]": {"details": "cytotoxicity flag (confluency mask): not cytotoxic"}}, "note": "Whole data set: some 2,900 compounds, median “IRF Lucia reporter activity, fold change vs agonist alone” near 0.9, cut for the highest 2% near 2.8. This is one part of the list."}
{"smiles": "Nc1ccc(C(=O)Nc2cccc(-c3nc(N4CCOCC4)c4oc5ncccc5c4n3)c2)cn1", "note": "(library stock concentration (final ~1000-fold dilution): 10 mM)", "values": [{"measurement": "IRF Lucia reporter activity", "setting": "RAW-Dual [1]; [4]", "result": 0.205}, {"measurement": "IRF Lucia reporter activity", "setting": "RAW-Dual [1]; agonist: LPS (TLR4) 0.1 ug/mL", "result": 3.93}]}
{"smiles": "CCOC(=O)C(CCc1ccccc1)NC(C)C(=O)N1CCCC1C(=O)O.O=C(O)/C=C\\C(=O)O", "note": "(centres undefined) (library stock concentration (final ~1000-fold dilution): 10 mM)", "values": [{"measurement": "IRF Lucia reporter activity", "setting": "RAW-Dual [1]; [4]", "result": 1.02}, {"measurement": "IRF Lucia reporter activity", "setting": "RAW-Dual [1]; agonist: LPS (TLR4) 0.1 ug/mL", "result": 0.873}]}
{"smiles": "CCOC(=O)C(CCc1ccccc1)NC(C)C(=O)N1CCCC1C(=O)O.O=C(O)/C=C\\C(=O)O", "note": "(centres undefined)", "values": [{"measurement": "IRF Lucia reporter activity", "setting": "RAW-Dual [2]; [5]", "result": 0.969}]}
{"smiles": "CN(C)CCCN1c2ccccc2Sc2ccc(Cl)cc21", "note": "(library stock concentration (final ~1000-fold dilution): 10 mM)", "values": [{"measurement": "IRF Lucia reporter activity", "setting": "RAW-Dual [1]; [4]", "result": 0.984}, {"measurement": "IRF Lucia reporter activity", "setting": "RAW-Dual [1]; agonist: LPS (TLR4) 0.1 ug/mL", "result": 1.85}]}
{"smiles": "CN(C)CCCN1c2ccccc2Sc2ccc(Cl)cc21", "values": [{"measurement": "IRF Lucia reporter activity", "setting": "RAW-Dual [2]; [5]", "result": 2.13}]}
{"smiles": "Cc1ccc(NC(=O)c2ccnc(C(F)(F)F)c2)cc1-c1cc(OCCO)nc(N2CCOCC2)c1", "note": "(library stock concentration (final ~1000-fold dilution): 10 mM)", "values": [{"measurement": "IRF Lucia reporter activity", "setting": "RAW-Dual [1]; [4]", "result": 0.359}, {"measurement": "IRF Lucia reporter activity", "setting": "RAW-Dual [1]; agonist: LPS (TLR4) 0.1 ug/mL", "result": 0.647}]}
{"smiles": "Nc1ncnc2c1ncn2C1CCCO1", "note": "(centres undefined) (library stock concentration (final ~1000-fold dilution): 10 mM)", "values": [{"measurement": "IRF Lucia reporter activity", "setting": "RAW-Dual [1]; [4]", "result": 0.881}, {"measurement": "IRF Lucia reporter activity", "setting": "RAW-Dual [1]; agonist: LPS (TLR4) 0.1 ug/mL", "result": 1.97}]}
{"smiles": "CC1CC(C(=O)O)C2CCC3(C)C(=CCC4C5(C)CCC(O)C(C)(C)C5CCC43C)C2C1C", "note": "(centres undefined)", "values": [{"measurement": "IRF Lucia reporter activity", "setting": "RAW-Dual [2]; [5]", "result": 1.06}]}
{"smiles": "CC1CC(C(=O)O)C2CCC3(C)C(=CCC4C5(C)CCC(O)C(C)(C)C5CCC43C)C2C1C", "note": "(centres undefined) (library stock concentration (final ~1000-fold dilution): 10 mM)", "values": [{"measurement": "IRF Lucia reporter activity", "setting": "RAW-Dual [1]; [4]", "result": 0.973}, {"measurement": "IRF Lucia reporter activity", "setting": "RAW-Dual [1]; agonist: LPS (TLR4) 0.1 ug/mL", "result": 1.12}]}
{"smiles": "CNCCN(C)Cc1c[nH]nc1-c1ccc(OC2CC(OCCC3CCOCC3)C2)cc1.Cl.Cl", "note": "(centres undefined) (library stock concentration (final ~1000-fold dilution): 10 mM)", "values": [{"measurement": "IRF Lucia reporter activity", "setting": "RAW-Dual [1]; [4]", "result": 0.626}, {"measurement": "IRF Lucia reporter activity", "setting": "RAW-Dual [1]; agonist: LPS (TLR4) 0.1 ug/mL", "result": 0.946}]}
{"smiles": "COc1ccnc(C[S+]([O-])c2nc3cc(OC(F)F)ccc3[nH]2)c1OC", "note": "(centres undefined) (library stock concentration (final ~1000-fold dilution): 10 mM)", "values": [{"measurement": "IRF Lucia reporter activity", "setting": "RAW-Dual [1]; [4]", "result": 1.15}, {"measurement": "IRF Lucia reporter activity", "setting": "RAW-Dual [1]; agonist: LPS (TLR4) 0.1 ug/mL", "result": 1.26}]}
{"smiles": "COc1ccnc(C[S+]([O-])c2nc3cc(OC(F)F)ccc3[nH]2)c1OC", "note": "(centres undefined)", "values": [{"measurement": "IRF Lucia reporter activity", "setting": "RAW-Dual [2]; [5]", "result": 1.19}]}
{"smiles": "Cc1cc(C)c(S(=O)(=O)n2cc(C)cc2C)c(C)c1", "note": "(library stock concentration (final ~1000-fold dilution): 10 mM)", "values": [{"measurement": "IRF Lucia reporter activity", "setting": "RAW-Dual [1]; [4]", "result": 1.06}, {"measurement": "IRF Lucia reporter activity", "setting": "RAW-Dual [1]; agonist: LPS (TLR4) 0.1 ug/mL", "result": 1.47}]}
{"smiles": "Cc1cc(C)c(S(=O)(=O)n2cc(C)cc2C)c(C)c1", "values": [{"measurement": "IRF Lucia reporter activity", "setting": "RAW-Dual [2]; [5]", "result": 1.09}]}
{"smiles": "Cc1[nH]c2ccccc2c1CCNCc1ccc(/C=C/C(=O)NO)cc1", "values": [{"measurement": "IRF Lucia reporter activity", "setting": "RAW-Dual [2]; cytotoxicity flag (confluency mask): cytotoxic (confluency <70% of control)", "result": 0.35}]}
{"smiles": "Cc1[nH]c2ccccc2c1CCNCc1ccc(/C=C/C(=O)NO)cc1", "note": "(library stock concentration (final ~1000-fold dilution): 10 mM)", "values": [{"measurement": "IRF Lucia reporter activity", "setting": "RAW-Dual [3]; [4]", "result": 0.0425}, {"measurement": "IRF Lucia reporter activity", "setting": "RAW-Dual [3]; agonist: LPS (TLR4) 0.1 ug/mL", "result": 0.775}]}
{"smiles": "C=CC(=O)Nc1ccc(CN2C(=O)N(c3cc(OC)cc(OC)c3)Cc3cnc(Nc4ccc(N5CCN(C)CC5)cc4)nc32)cc1", "note": "(library stock concentration (final ~1000-fold dilution): 10 mM)", "values": [{"measurement": "IRF Lucia reporter activity", "setting": "RAW-Dual [1]; [4]", "result": 0.461}, {"measurement": "IRF Lucia reporter activity", "setting": "RAW-Dual [1]; agonist: LPS (TLR4) 0.1 ug/mL", "result": 0.265}]}
{"smiles": "O=C(O)[C@H]1O[C@@H](Oc2cc3oc(-c4ccccc4)cc(=O)c3c(O)c2O)[C@H](O)[C@@H](O)[C@@H]1O", "note": "(library stock concentration (final ~1000-fold dilution): 10 mM)", "values": [{"measurement": "IRF Lucia reporter activity", "setting": "RAW-Dual [1]; [4]", "result": 0.872}, {"measurement": "IRF Lucia reporter activity", "setting": "RAW-Dual [1]; agonist: LPS (TLR4) 0.1 ug/mL", "result": 1.25}]}
{"smiles": "Cn1cc(-c2ccncc2)c(-c2ccc(OCc3ccc4ccccc4n3)cc2)n1", "note": "(library stock concentration (final ~1000-fold dilution): 10 mM)", "values": [{"measurement": "IRF Lucia reporter activity", "setting": "RAW-Dual [1]; [4]", "result": 0.494}, {"measurement": "IRF Lucia reporter activity", "setting": "RAW-Dual [1]; agonist: LPS (TLR4) 0.1 ug/mL", "result": 0.793}]}
{"smiles": "Cn1cc(-c2ccncc2)c(-c2ccc(OCc3ccc4ccccc4n3)cc2)n1", "values": [{"measurement": "IRF Lucia reporter activity", "setting": "RAW-Dual [2]; [5]", "result": 0.795}]}
{"smiles": "CC(C)OC(=O)C(C)NP(=O)(OCC1OC(n2ccc(=O)[nH]c2=O)C(C)(F)C1O)Oc1ccccc1", "note": "(centres undefined) (library stock concentration (final ~1000-fold dilution): 10 mM)", "values": [{"measurement": "IRF Lucia reporter activity", "setting": "RAW-Dual [1]; [4]", "result": 1.04}, {"measurement": "IRF Lucia reporter activity", "setting": "RAW-Dual [1]; agonist: LPS (TLR4) 0.1 ug/mL", "result": 0.731}]}
{"smiles": "CC(C)OC(=O)C(C)NP(=O)(OCC1OC(n2ccc(=O)[nH]c2=O)C(C)(F)C1O)Oc1ccccc1", "note": "(centres undefined)", "values": [{"measurement": "IRF Lucia reporter activity", "setting": "RAW-Dual [2]; [5]", "result": 1.04}]}
{"smiles": "O=C(/C=C/c1cccnc1)c1ccncc1", "note": "(library stock concentration (final ~1000-fold dilution): 10 mM)", "values": [{"measurement": "IRF Lucia reporter activity", "setting": "RAW-Dual [1]; [4]", "result": 0.859}, {"measurement": "IRF Lucia reporter activity", "setting": "RAW-Dual [1]; agonist: LPS (TLR4) 0.1 ug/mL", "result": 1.27}]}
{"smiles": "O=C1C(CCC(O)c2ccc(F)cc2)C(c2ccc(O)cc2)N1c1ccc(F)cc1", "note": "(centres undefined) (library stock concentration (final ~1000-fold dilution): 10 mM)", "values": [{"measurement": "IRF Lucia reporter activity", "setting": "RAW-Dual [1]; [4]", "result": 1.17}, {"measurement": "IRF Lucia reporter activity", "setting": "RAW-Dual [1]; agonist: LPS (TLR4) 0.1 ug/mL", "result": 1.09}]}
{"smiles": "O=C1C(CCC(O)c2ccc(F)cc2)C(c2ccc(O)cc2)N1c1ccc(F)cc1", "note": "(centres undefined)", "values": [{"measurement": "IRF Lucia reporter activity", "setting": "RAW-Dual [2]; [5]", "result": 1.19}]}
{"smiles": "OCC1=CC(O)C2C=COC(OC3OC(CO)C(O)C(O)C3O)C12", "note": "(centres undefined)", "values": [{"measurement": "IRF Lucia reporter activity", "setting": "RAW-Dual [2]; [5]", "result": 1.01}]}
{"smiles": "OCC1=CC(O)C2C=COC(OC3OC(CO)C(O)C(O)C3O)C12", "note": "(centres undefined) (library stock concentration (final ~1000-fold dilution): 10 mM)", "values": [{"measurement": "IRF Lucia reporter activity", "setting": "RAW-Dual [1]; [4]", "result": 1.05}, {"measurement": "IRF Lucia reporter activity", "setting": "RAW-Dual [1]; agonist: LPS (TLR4) 0.1 ug/mL", "result": 1.37}]}
